The source of these data is the RNAGym collection of RNA variant scans (doi:10.1093/nar/gkz1192).

The source gives no read counts; variants with many changes may rest on few reads.

The labels stand for the following.
B1: CPEB3 Ribozyme (parent)
chain: UAACAGGGGGCCACAGCAGAAGCGUUCACGUCGCAGCCCCUGUCAGAUUCUGGUGAAUCUGCGAAUUCUGCUGUAUAUCUC

Variants of B1 are the subject of this data set. As to the kind of experiment: self-cleavage, relative activity (ratio to wild type); higher = more cleavage; in vitro, sequencing. In outline: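 Relative activity was defined as the cleaved/total read fraction for a variant divided by the same fraction for the unmutated ribozyme. CPEB3 self-cleaving ribozyme libraries were made by rounds of error-prone PCR, barcoded, and transcribed in vitro with T7 RNA polymerase for 5 hours at 37°C, and cleavage ran through transcription plus a 15 min DNase I step before EDTA. Illumina sequencing of template-switched reverse transcripts gave the reads, and DNA sequencing mapped the barcodes. Averages come from three batches, using variants with at least 5 reads.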
On to A15G A35G A64G, for which the self-cleavage came out at 0.63.
In the case of A15G A21G G52A, the self-cleavage worked out at 0.66.
Regarding A15G G19A C39U A45U U74A, the self-cleavage is 0.6.
With A15G A65G G70A, the self-cleavage stood at 0.18.
In the case of A15G A28G U41A C50A A75U, the self-cleavage was determined as 0.07.
Next, A15G C29U A45G U51C A65G U69C U78C: 0.07.
Regarding A15G C39U A64G, the self-cleavage was found to be 0.34.
Take A15G A35G C40G U41C U60C: the self-cleavage is 0.14.
Take A15G C23U U49C: the self-cleavage came to 0.03.
For the variant A15G A21U C34U U66C, the self-cleavage turned out to be 0.07.
The figure for A15G A21G U25C C38G U78C is 0.06; for A15G C32U U72C it is 0.19; for A15G A21U G33U C39U A57G it is 0.47.
Turning to A15G A35U U41C, the self-cleavage was 0.46.
Consider A15G A21G G30A A35G U48C U76C U78C, for which the self-cleavage worked out at 0.06.
Next, A15G A35G A57G G61A: 0.36; A15G A56U U80C: 0.53.
Next, A15G A28G C44A U72C: 0.45; A15G A21U C27U A56U U69C: 0.05.
The figure for A15G A45G A57G U60A U67C is 0.24; for A15G A47G U54A it is 0.84.
On to A15G G16C A65G U69C, for which the self-cleavage was 0.17.
A15G A21G C23U A45G U51C: the self-cleavage worked out at 0.06.
Consider A15G A21G C32U C38U A64U, for which the self-cleavage was determined as 0.06.
A15G C23G U25C: the self-cleavage is 0.13.
For the variant A15G C40U U74C, the self-cleavage turned out to be 0.54.
For A15G A28G C29A U69C, the self-cleavage worked out at 0.19.
The figure for A15G G16A C71U is 0.18; for A15G A28C U49A it is 0.19.
Consider A15G C29A A47G A56U, for which the self-cleavage stood at 0.11.
Consider A15G A57C U69A U80C, for which the self-cleavage is 0.13.
With A15G A21U U48A A77C, the self-cleavage came out at 0.07.
On to A15G A35U A57G U72C, for which the self-cleavage worked out at 0.72.
In the case of A15G A65G U72A, the self-cleavage turned out to be 0.18.
For the variant A15G G16U A18G, the self-cleavage was 0.47.
The figure for A15G A47G U54C G63A is 0.68; for A15G A28U U43C U69A U80C it is 0.07; for A15G A35G A56G U60C it is 0.47.
With A15G A45U A57G A65G, the self-cleavage came to 0.18.
A15G A21G U48C A57G U76A: the self-cleavage came to 0.7.
Turning to A15G A28G A56G U66C U74C, the self-cleavage was 0.07.
Take A15G A28G A45G U54C G61A: the self-cleavage came to 0.24.
A15G C34A C62U: the self-cleavage came to 0.08.
The figure for A15G A47G U60C is 0.21; for A15G G16A A18C U49C A64G U78C it is 0.05.
Take A15G C38A U78C: the self-cleavage was 0.12.
In the case of A15G A47G U51C, the self-cleavage was 0.79.
Next, A15G A28G U41C U51A A65U: 0.16.
For the variant A15G A28G U80C, the self-cleavage stood at 0.56.
Next, A15G A64U A75U C81U: 0.43.
With A15G G16U U25C A35G U66C U72A U78C, the self-cleavage was 0.04.
Consider A15G A21G U48C U58C, for which the self-cleavage was determined as 0.07.
Next, A15G A21U U41A: 0.1.
Consider A15G A45G A47U G52A U80C, for which the self-cleavage was 0.33.
In the case of A15G A21G U31A U41G U43C A45C U80C, the self-cleavage stood at 0.
On to A15G A35G U72A, for which the self-cleavage came to 0.41.
For A15G A35G U72C, the self-cleavage stood at 1.06.
On to A15G A35G U60G U80C, for which the self-cleavage amounted to 0.1.
On to A15G C29G A56G, for which the self-cleavage amounted to 0.23.
As to A15G A28U C32U, the self-cleavage worked out at 0.3.
Take A15G C37U U43C U48A U54A G55U: the self-cleavage came out at 0.14.
A15G A64G U76C: the self-cleavage was found to be 0.64.
As for A15G A21U A35G U41A U58A U67C, the self-cleavage is 0.06.
As for A15G A21G U26C C44A, the self-cleavage was 0.04.
Consider A15G A28U U76C, for which the self-cleavage was determined as 0.45.
A15G C29U U43C: the self-cleavage stood at 0.07.
Consider A15G A28G U31C A75U U80C, for which the self-cleavage is 0.24.
For A15G A21G U25A U51G A65G U67C A77G, the self-cleavage stood at 0.19.
For the variant A15G A28G C29U A35C C62A A77G, the self-cleavage turned out to be 0.04.
As for A15G C39U U69C U72A A75U, the self-cleavage came to 0.07.
In the case of A15G C40U U41A U51A, the self-cleavage amounted to 0.34.
Turning to A15G A28G U72C C79U, the self-cleavage came to 1.15.
For A15G C39U A45G A64U, the self-cleavage is 0.1.
Next, A15G C27U C32A U72C: 0.11; A15G A28G C32U A45U U49C A56U U78C: 0.05; A15G A21U G33A C50U: 0.14.
As for A15G A47G C50A U51C U54C U74A C81A, the self-cleavage is 0.65.
On to A15G A28U U74A, for which the self-cleavage stood at 0.45.
The figure for A15G C17A A21G C27U is 0.33.
The figure for A15G C29A U72C U78C is 0.38; for A15G A47G U60A U78C it is 0.16; for A15G A35U U54A it is 0.49.
Take A15G A21G U72C: the self-cleavage was 0.59.
